{
  "source": "PubChem BioAssay AID504333",
  "about": "(National Center for Advancing Translational Sciences (NCATS), 2011)",
  "note": "Hit rate of the full screen: of about 360,000 compounds, about 16,000 (4.4%) were called active. This list was built around the results that the source calls inconclusive (neither active nor inactive); the mix of calls is not that of the screen. Calls follow the shape of the dose curve; as a rule, active = well fitted inhibition curve with a large enough effect; inconclusive = small, poorly fitted or top-dose-only effect; inactive = no such curve, though single readings can be large or run the other way. Where the call is inconclusive, the potency comes from a doubtful curve fit. Potency is read from the fitted curve at half-maximal effect; tags tell the direction and shape of the fitted curve.",
  "data": [
    {"biological_target": "Bromodomain adjacent to zinc finger domain protein 2B (Homo sapiens) (UniProt Q9UIF8)", "sequence (Q9UIF8 whole entry, looked up, the tested form may be a part)": "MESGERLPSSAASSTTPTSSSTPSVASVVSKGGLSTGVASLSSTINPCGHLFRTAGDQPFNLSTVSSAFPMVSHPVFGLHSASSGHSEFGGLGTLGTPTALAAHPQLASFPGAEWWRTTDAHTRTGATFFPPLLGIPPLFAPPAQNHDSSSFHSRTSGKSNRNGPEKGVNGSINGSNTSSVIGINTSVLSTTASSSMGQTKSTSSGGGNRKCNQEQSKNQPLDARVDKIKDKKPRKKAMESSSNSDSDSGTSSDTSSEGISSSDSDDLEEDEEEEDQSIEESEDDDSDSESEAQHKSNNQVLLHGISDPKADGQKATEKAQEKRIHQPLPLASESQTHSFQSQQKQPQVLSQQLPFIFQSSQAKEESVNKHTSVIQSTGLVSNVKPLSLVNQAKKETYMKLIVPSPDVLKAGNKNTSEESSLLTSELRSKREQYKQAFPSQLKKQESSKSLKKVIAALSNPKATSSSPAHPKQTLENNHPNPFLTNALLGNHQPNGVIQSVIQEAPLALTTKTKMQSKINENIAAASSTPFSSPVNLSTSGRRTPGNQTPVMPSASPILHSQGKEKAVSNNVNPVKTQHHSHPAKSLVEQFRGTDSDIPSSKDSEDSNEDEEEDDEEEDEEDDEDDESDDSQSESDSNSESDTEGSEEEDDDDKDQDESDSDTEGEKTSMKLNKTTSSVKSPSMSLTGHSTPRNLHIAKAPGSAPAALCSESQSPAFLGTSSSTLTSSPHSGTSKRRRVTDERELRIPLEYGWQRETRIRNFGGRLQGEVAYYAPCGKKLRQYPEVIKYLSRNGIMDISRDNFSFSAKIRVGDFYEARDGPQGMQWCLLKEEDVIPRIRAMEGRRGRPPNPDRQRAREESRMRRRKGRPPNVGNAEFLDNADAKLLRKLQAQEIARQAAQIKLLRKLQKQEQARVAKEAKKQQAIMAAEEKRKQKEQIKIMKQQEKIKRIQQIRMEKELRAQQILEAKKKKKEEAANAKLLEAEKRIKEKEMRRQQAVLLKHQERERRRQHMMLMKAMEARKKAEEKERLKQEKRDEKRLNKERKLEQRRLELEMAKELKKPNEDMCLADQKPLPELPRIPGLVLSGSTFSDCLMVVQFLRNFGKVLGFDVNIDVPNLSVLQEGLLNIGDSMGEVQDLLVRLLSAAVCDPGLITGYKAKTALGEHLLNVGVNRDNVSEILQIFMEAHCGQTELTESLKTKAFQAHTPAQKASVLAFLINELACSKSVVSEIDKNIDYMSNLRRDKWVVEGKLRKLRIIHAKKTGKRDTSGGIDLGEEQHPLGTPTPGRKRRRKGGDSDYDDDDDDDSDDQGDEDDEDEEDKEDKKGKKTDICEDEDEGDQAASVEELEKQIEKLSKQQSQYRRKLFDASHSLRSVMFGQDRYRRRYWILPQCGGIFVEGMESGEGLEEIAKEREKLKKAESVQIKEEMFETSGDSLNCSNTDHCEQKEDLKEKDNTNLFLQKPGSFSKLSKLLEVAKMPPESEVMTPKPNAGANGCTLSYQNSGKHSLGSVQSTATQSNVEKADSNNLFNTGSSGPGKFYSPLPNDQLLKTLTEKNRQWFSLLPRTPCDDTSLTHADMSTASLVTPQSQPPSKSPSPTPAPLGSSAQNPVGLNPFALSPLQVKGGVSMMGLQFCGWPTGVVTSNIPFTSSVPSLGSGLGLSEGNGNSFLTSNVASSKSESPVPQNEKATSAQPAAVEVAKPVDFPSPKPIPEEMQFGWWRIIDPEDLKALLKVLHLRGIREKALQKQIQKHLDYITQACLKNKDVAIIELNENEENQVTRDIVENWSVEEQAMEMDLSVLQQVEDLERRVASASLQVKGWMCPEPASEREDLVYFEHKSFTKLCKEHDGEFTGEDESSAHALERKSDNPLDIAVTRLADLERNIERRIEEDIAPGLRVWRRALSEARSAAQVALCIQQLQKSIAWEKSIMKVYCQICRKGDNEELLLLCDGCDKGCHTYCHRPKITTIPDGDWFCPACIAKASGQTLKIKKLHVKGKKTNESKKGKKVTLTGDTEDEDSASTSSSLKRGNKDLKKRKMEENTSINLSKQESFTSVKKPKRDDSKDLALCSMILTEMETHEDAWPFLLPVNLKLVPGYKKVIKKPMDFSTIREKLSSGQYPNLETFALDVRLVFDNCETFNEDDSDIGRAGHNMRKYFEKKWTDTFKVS", "experiment": "qHTS Assay for Inhibitors of BAZ2B; also: nearly all actives have a fitted effect of over 60% in size", "conditions": "AlphaScreen BAZ2B-H3K14Ac peptide displacement; series mostly up to 114 µM", "how_it_was_run": "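In this displacement format the biotinylated H3(5-23) peptide acetylated at Lys14 serves as ligand at 50 nM, with BAZ2B at 50 nM in PBS pH 7.4 containing 0.01% Tween-20. Donor and acceptor beads are 10 ug/mL final.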", "values": [
      {"compound": "CCOc1ccc(NC2=NCC(=O)N2CCc2ccccc2)cc1", "Potency": "active: 79.4 µM"},
      {"compound": "c1ccc(Cn2c(CNc3nc4ccccc4n3CCN3CCCCC3)nc3ccccc32)cc1", "Potency": "inconclusive: 50.1 µM [inhibitor, partial curve]"},
      {"compound": "CCOC(=O)C1=C(CSc2nc(CC)c(C)cc2C#N)OC(N)=C(C#N)C1c1ccc(OC)cc1", "note": "(centres undefined)", "Potency": "inactive"},
      {"compound": "CN(C)CCCN(C(=O)/C=C/c1cccs1)c1nc2c(F)cccc2s1", "Potency": "inconclusive: 79.4 µM [inhibitor, single point]"},
      {"compound": "CCOC(=O)c1[nH]c(C)c(CC(C)C)c1C", "Potency": "inactive"},
      {"compound": "Cc1ccc(-n2c(CCC(=O)O)ccc2-c2cccs2)cc1", "Potency": "active: 50.1 µM"},
      {"compound": "Cc1ccc2c(CC(=O)NC3=NCCS3)coc2c1", "Potency": "inconclusive: 89.1 µM [inhibitor, single point]"},
      {"compound": "COC(=O)c1ccc(NC(=O)c2ccccc2-c2ccccc2C(=O)O)cc1", "Potency": "inconclusive: 89.1 µM [inhibitor, single point]"},
      {"compound": "O=C(c1ccc(F)cc1)[C@@H]1[C@@H](C(=O)c2ccccc2)[C@@]2(C(=O)Nc3ccccc32)[C@H]2c3ccccc3C=CN12", "Potency": "inconclusive: 50.1 µM [inhibitor, partial curve]"},
      {"compound": "O=C(Cc1cccs1)Nc1ccc2c(c1)C(=O)OC2", "Potency": "inconclusive: 89.1 µM [inhibitor, single point]"},
      {"compound": "Oc1ccc(N2CCN(Cc3c(-c4ccccc4)nc4ccccn34)CC2)cc1", "Potency": "inconclusive: 44.7 µM [inhibitor, partial curve]"},
      {"compound": "O=C(CCN1C(=O)/C(=C/c2ccccc2Cl)SC1=S)N1CCCC1", "Potency": "active: 25.1 µM"},
      {"compound": "COc1ccccc1OC(C)C(=O)Nc1ccc(S(=O)(=O)Nc2nccs2)cc1", "note": "(centres undefined)", "Potency": "inconclusive: 79.4 µM [inhibitor, single point]"},
      {"compound": "CC(C)Oc1ccc(C(=O)N/N=C/c2ccc(-c3ccc(S(=O)(=O)Nc4ncccn4)cc3)o2)cc1", "Potency": "inconclusive: 89.1 µM [inhibitor, single point]"},
      {"compound": "C=CCOC(=O)C1=C(C)NC(SC)=C(C#N)C1c1cccs1", "note": "(centres undefined)", "Potency": "inconclusive: 89.1 µM [inhibitor, single point]"},
      {"compound": "O=C(Nc1ccc(COc2ccccc2)cc1)Nc1cccc(C(=O)O)c1", "Potency": "inconclusive: 89.1 µM [inhibitor, single point]"},
      {"compound": "Cc1ccc(C2=N/C(=C\\c3cccs3)C(=O)N2Nc2ccccc2)cc1", "Potency": "active: 35.5 µM"},
      {"compound": "CN(C)c1ccc(NC(=O)COC(=O)c2cc(Cl)ccc2[N+](=O)[O-])cc1", "Potency": "active: 35.5 µM"},
      {"compound": "O=C(NC(=S)Nc1cccc([N+](=O)[O-])c1)c1ccccc1", "Potency": "inactive"}
    ]}
  ]
}
